Consider 306 variants from a collection of fitness landscapes (doi:10.1126/science.1257360).

This is one part of the list.

The chains are these.
B1: PhoQ; a variant is named by its letters at X, in order, P23837 (parent)
chain: MKKLLRLFFPLSLRVRFLLATAAVVLVLSLAYGMVALIGYSVSFDKTTFRLLRGESNLFYTLAKWENNKLHVELPENIDKQSPTMTLIYDENGQLLWAQRDVPWLMKMIQPDWLKSNGFHEIEADVNDTSLLLSGDHSIQQQLQEVREDDDDAEMTHSVAVNVYPATSRMPKLTIVVVDTIPVELKSSYMVWSWFIYVLSANLLLVIPLLWVAAWWSLRPIEALAKEVRELEEHNRELLNPATTRELTSLVRNLNRLLKSERERYDKYRTTLTDLTHSLKTPLXXLQXXLRSLRSEKMSVSDAEPVMLEQISRISQQIGYYLHRASMRGGTLLSRELHPVAPLLDNLTSALNKVYQRKGVNISLDISPEISFVGEQNDFVEVMGNVLDNACKYCLEFVEISARQTDEHLYIVVEDDGPGIPLSKREVIFDRGQRVDTLRPGQGVGLAVAREITEQYEGKIVAGESMLGGARMEVIFGRQHSAPKDE

The test covers variants of B1. The experiment in a line: enrichment ratio after two sorts for PhoP signalling (ratio (wild type AVST 3.29)); higher = more functional. Conditions: with PhoP (E. coli).
With MKPH, the enrichment ratio was not above 0.25. The result for FSWH reads not above 0.25; that for RCNY, not above 0.25; that for EHAI, not above 0.25. Next, KFNI: not above 0.25. In the case of YKYD, the enrichment ratio was not above 0.25. Next, DWIQ: not above 0.25. Next, YLCG: not above 0.25. In the case of RELA, the enrichment ratio was not above 0.25. For the variant KMGD, the enrichment ratio is not above 0.25. As to EGIL, the enrichment ratio is not above 0.25. As to YGVK, the enrichment ratio is not above 0.25. With RKKF, the enrichment ratio is not above 0.25.

As to NTRQ, the enrichment ratio was not above 0.25. Next, AHAL: not above 0.25; GPVN: not above 0.25. For the variant YGPK, the enrichment ratio was not above 0.25.

Consider LTHP, for which the enrichment ratio was not above 0.25. Next, LRWL: 0.506; QLCW: not above 0.25; QNHI: not above 0.25.

As for PTEV, the enrichment ratio is not above 0.25. Next, SFSM: 1.44; QIGT: not above 0.25. The result for KVTK reads not above 0.25.

Regarding KKGY, the enrichment ratio is not above 0.25.

As for MAIA, the enrichment ratio is not above 0.25. For the variant NKAD, the enrichment ratio was not above 0.25. On to PMTF, for which the enrichment ratio is not above 0.25. The result for VEAA reads not above 0.25; that for AMHL, not above 0.25; that for QGMS, not above 0.25. The result for IAQP reads not above 0.25; that for YCYQ, not above 0.25; that for GFAY, not above 0.25. Turning to YRMW, the enrichment ratio was not above 0.25. The result for ERQH reads not above 0.25. The result for HGVF reads not above 0.25. Take FVCE: the enrichment ratio was not above 0.25.

With SKLM, the enrichment ratio is 16.3.

Turning to SWVG, the enrichment ratio is not above 0.25. The result for FLCM reads not above 0.25; that for LPRQ, not above 0.25; that for IQPA, not above 0.25. As to QLLH, the enrichment ratio is not above 0.25.

As to YCMH, the enrichment ratio is not above 0.25. With DWDI, the enrichment ratio was not above 0.25. The result for ADCH reads 9.13; that for NQWK, not above 0.25. The result for LGYA reads 0.297; that for WDFK, not above 0.25; that for TATR, not above 0.25. Next, PISA: not above 0.25. Consider NLER, for which the enrichment ratio is not above 0.25. Next, VPSN: not above 0.25; GQIW: not above 0.25.

Take PLED: the enrichment ratio is not above 0.25. Take DGGE: the enrichment ratio was not above 0.25. The result for MELR reads not above 0.25. The result for YPRY reads not above 0.25. The result for MIWN reads not above 0.25; that for YPIA, not above 0.25. Regarding VEVD, the enrichment ratio is not above 0.25. The result for VTDL reads not above 0.25; that for IYRH, not above 0.25; that for HEIF, not above 0.25.

As for MSQT, the enrichment ratio was not above 0.25. The result for QSQF reads not above 0.25; that for QPAW, not above 0.25; that for DFVY, not above 0.25. The result for ENPH reads not above 0.25. The result for FHWV reads not above 0.25.

Regarding NQFF, the enrichment ratio is not above 0.25. The result for SAEM reads not above 0.25; that for FCNA, not above 0.25; that for LYYA, not above 0.25. Next, TSLV: 14.6; SDAK: not above 0.25. Turning to HFKY, the enrichment ratio was not above 0.25.

In the case of PEQS, the enrichment ratio is not above 0.25. The result for DPSV reads not above 0.25; that for HGKI, not above 0.25; that for LGAG, not above 0.25. The result for VDVE reads not above 0.25; that for LRCS, not above 0.25. Next, NQNR: not above 0.25; PWKD: not above 0.25; NIAL: 1.57. QRFN: the enrichment ratio was not above 0.25. Take ALSC: the enrichment ratio amounted to 4.98. The result for IVRM reads not above 0.25; that for NEEC, not above 0.25. Next, LARH: not above 0.25.

Consider KKAV, for which the enrichment ratio is not above 0.25. Next, FWAC: not above 0.25; PCWD: not above 0.25. With QMTF, the enrichment ratio was not above 0.25. Next, LTII: not above 0.25. The result for NPIH reads not above 0.25; that for RVLS, not above 0.25; that for QYCI, not above 0.25. The result for MFPR reads not above 0.25; that for TFRW, not above 0.25. KHKS: the enrichment ratio is not above 0.25. The result for NFSW reads not above 0.25; that for NDQA, not above 0.25. Regarding HTDS, the enrichment ratio is not above 0.25.

For ITHR, the enrichment ratio is not above 0.25. Next, LTTW: not above 0.25; VRIL: not above 0.25. The result for HDTK reads not above 0.25; that for EVFM, not above 0.25. The result for LMIR reads not above 0.25; that for RGWC, not above 0.25; that for KMKV, not above 0.25.

As to YESY, the enrichment ratio was not above 0.25.

Consider SPTV, for which the enrichment ratio was not above 0.25. Next, ASVP: not above 0.25; REDR: not above 0.25. The result for PWPG reads not above 0.25; that for VPTR, not above 0.25; that for HIDF, not above 0.25. The result for NLTA reads not above 0.25; that for IGPA, not above 0.25; that for KQML, not above 0.25.

Regarding KAMT, the enrichment ratio is not above 0.25.

WMRK: the enrichment ratio is not above 0.25.

For PMED, the enrichment ratio was not above 0.25.

Consider VCCE, for which the enrichment ratio is not above 0.25.

Regarding ELNM, the enrichment ratio is not above 0.25. Regarding RSEV, the enrichment ratio was not above 0.25.

For GNDY, the enrichment ratio is not above 0.25. Next, PFTE: not above 0.25; QMVS: not above 0.25. Next, DDSR: not above 0.25; FWVI: not above 0.25. The result for KHRP reads not above 0.25; that for QQGV, not above 0.25; that for NWGV, not above 0.25. DRDR: the enrichment ratio is not above 0.25.

TDGA: the enrichment ratio was not above 0.25. The result for QYCD reads not above 0.25; that for DMLH, not above 0.25; that for LSIH, not above 0.25.

In the case of EMCN, the enrichment ratio is not above 0.25. The result for ESQL reads not above 0.25.

As to HPMK, the enrichment ratio is not above 0.25. Next, FMEV: not above 0.25; HPGG: not above 0.25; TILL: 0.421.

For the variant RMSH, the enrichment ratio is not above 0.25.

Consider SWCE, for which the enrichment ratio is not above 0.25.

On to GAIM, for which the enrichment ratio amounted to 15.4.

IAAP: the enrichment ratio was not above 0.25. Next, TGEN: not above 0.25. The result for WFLG reads not above 0.25; that for NIWV, not above 0.25; that for PWAD, not above 0.25. Next, GPWK: not above 0.25; QKEP: not above 0.25. As to SKWH, the enrichment ratio is not above 0.25.

With YEPR, the enrichment ratio is not above 0.25. Next, QAGI: 6.61; KGQN: not above 0.25.

Regarding QFVC, the enrichment ratio is not above 0.25.

With LARF, the enrichment ratio was not above 0.25.

For the variant KVLQ, the enrichment ratio was not above 0.25. WIWC: the enrichment ratio is not above 0.25. Next, GCHL: not above 0.25. Turning to NVPI, the enrichment ratio is not above 0.25. Consider YAHE, for which the enrichment ratio was not above 0.25. Next, SNTE: 0.617; FFER: not above 0.25; HLSP: not above 0.25. The result for DVLR reads not above 0.25; that for QMGS, 1.95. For the variant NYYN, the enrichment ratio is not above 0.25.

As for IMDQ, the enrichment ratio is not above 0.25. Next, DQNY: not above 0.25; GDLC: 1.96. Regarding FFDS, the enrichment ratio is not above 0.25. Next, MRQA: not above 0.25; YVAS: 0.869; PDID: not above 0.25. The result for YWWN reads not above 0.25; that for WDNR, not above 0.25; that for RRGI, not above 0.25.

For the variant RQGH, the enrichment ratio was not above 0.25. Next, PQGP: not above 0.25. The result for HARM reads not above 0.25; that for ETPE, not above 0.25; that for KAYP, not above 0.25. In the case of QATK, the enrichment ratio is not above 0.25. For KTKE, the enrichment ratio was not above 0.25. Next, KVFD: not above 0.25; AYFL: not above 0.25; IWRW: not above 0.25. The result for RMAD reads not above 0.25; that for CIYN, not above 0.25.

As to AINI, the enrichment ratio was not above 0.25. The result for YTRW reads not above 0.25. The result for MQHP reads not above 0.25; that for FAYF, not above 0.25. The result for MRQS reads not above 0.25; that for KRYW, not above 0.25. With NNIH, the enrichment ratio was not above 0.25. Next, AHHC: not above 0.25. As to LVLM, the enrichment ratio is not above 0.25. Consider WADK, for which the enrichment ratio is not above 0.25.

Consider SGSC, for which the enrichment ratio is 9.79. Consider GRAN, for which the enrichment ratio is not above 0.25. The result for GPIG reads not above 0.25; that for HCLT, not above 0.25; that for IDEP, not above 0.25. The result for FCHI reads not above 0.25; that for TVHA, not above 0.25. Next, IALT: 1.07.

In the case of MVFH, the enrichment ratio was not above 0.25. Next, SGPV: not above 0.25.

QALK: the enrichment ratio was not above 0.25. The result for RHFM reads not above 0.25; that for LPMR, not above 0.25. As to SDWF, the enrichment ratio is not above 0.25. Next, LRGK: not above 0.25; SYAW: not above 0.25; SMRC: not above 0.25.

On to PDLQ, for which the enrichment ratio was not above 0.25. For PNEG, the enrichment ratio was not above 0.25.

As to RNCV, the enrichment ratio is not above 0.25.

As for GTQR, the enrichment ratio was not above 0.25. Next, MLFM: not above 0.25. The result for AREH reads not above 0.25.

For the variant FLAM, the enrichment ratio worked out at 0.363. Next, NFAL: not above 0.25; SMRA: not above 0.25; EYRM: not above 0.25. On to KPTQ, for which the enrichment ratio was not above 0.25. The result for DTWP reads not above 0.25; that for SVWM, not above 0.25; that for ICSN, not above 0.25. Next, SKQN: not above 0.25; RTYD: not above 0.25. Next, LKIL: not above 0.25. As for FFCQ, the enrichment ratio is not above 0.25.

Consider GGIS, for which the enrichment ratio is 0.407. The result for PAHS reads not above 0.25; that for RDNC, 1.59; that for YCDT, not above 0.25. The result for VWIK reads not above 0.25; that for AFNW, not above 0.25. Next, DIFA: not above 0.25; LCDQ: not above 0.25. As to SQKK, the enrichment ratio is not above 0.25. The result for PVGR reads not above 0.25. The result for LQLG reads 1.81; that for KQHG, not above 0.25. Next, RQVC: not above 0.25. GKWR: the enrichment ratio was not above 0.25. For FHYD, the enrichment ratio was not above 0.25. The result for RSHD reads not above 0.25; that for TPSE, not above 0.25. Next, IMHW: not above 0.25.

With EAHP, the enrichment ratio was not above 0.25.

Take RDEM: the enrichment ratio is not above 0.25. As to IQDI, the enrichment ratio is not above 0.25. The result for KHIV reads not above 0.25; that for YWGT, not above 0.25; that for LNIG, not above 0.25. Take TGLA: the enrichment ratio was determined as 27.5.

With PVSE, the enrichment ratio is not above 0.25.

With SHIM, the enrichment ratio amounted to 2.2.

Take FAVR: the enrichment ratio was not above 0.25. The result for MQKY reads not above 0.25. Regarding SQLL, the enrichment ratio is 12.5. For FAGW, the enrichment ratio was not above 0.25. Next, TTQK: not above 0.25. Next, EMQD: not above 0.25.

Turning to KYFD, the enrichment ratio is not above 0.25.

For GQEF, the enrichment ratio is not above 0.25.

With VFPI, the enrichment ratio was not above 0.25. Next, DSVE: not above 0.25. The result for SWDS reads not above 0.25. The result for NSGC reads not above 0.25. As to SFIF, the enrichment ratio is not above 0.25. The result for EISG reads not above 0.25.

MKDE: the enrichment ratio is not above 0.25. Next, RFLS: not above 0.25; KICQ: not above 0.25. The result for STKY reads not above 0.25; that for SRQP, not above 0.25. Next, MNNH: not above 0.25.

Consider SRQH, for which the enrichment ratio is not above 0.25. Next, FFFT: not above 0.25. Consider QQTA, for which the enrichment ratio was not above 0.25.

For IIHE, the enrichment ratio is not above 0.25. Next, GSYM: not above 0.25; QSKM: not above 0.25; WFYM: not above 0.25. The result for LTRW reads not above 0.25; that for FVLR, not above 0.25; that for AWFH, not above 0.25. Next, EYMW: not above 0.25; YASY: not above 0.25. As to LNSC, the enrichment ratio is not above 0.25. The result for KFLV reads not above 0.25; that for GGII, 1.19.
